We go through 42 sequences from paper PMC7819943, “Rice protein-binding microarrays: a tool to detect cis-acting elements near promoter regions in rice”.

This is one part of the list.

For the test, the target named is T1, OsWOX13 (Oryza sativa, UniProt Q5QMM3 1-267).
T1 sequence: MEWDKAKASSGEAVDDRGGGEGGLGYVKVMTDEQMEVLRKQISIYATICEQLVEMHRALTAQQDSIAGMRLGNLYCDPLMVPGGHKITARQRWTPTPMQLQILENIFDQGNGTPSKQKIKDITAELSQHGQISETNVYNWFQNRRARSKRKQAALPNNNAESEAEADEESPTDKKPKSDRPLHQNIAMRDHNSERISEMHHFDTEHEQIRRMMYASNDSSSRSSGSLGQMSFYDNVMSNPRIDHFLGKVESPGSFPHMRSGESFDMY
Description: protein-binding microarray (RPBM); PBS, 2% BSA, 51.3 ng/ul salmon testes DNA, 50 uM zinc acetate, 200 nM TF, 25 C, 1 h; high values mean tight binding. The following applies: protein: recombinant; tags: N-terminal polyhistidine and DsRed monomer fusion (pET32a); label: CyDye5-dUTP incorporated in the synthesized complementary strand; 3' TTTTT single-stranded linker to array surface; dsDNA, one strand shown. A digest of the protocol:
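Polyhistidine-tagged DsRed fusions of transcription factors, joined at the N-terminus, were expressed in E. coli BL21-CodonPlus and isolated on Ni–NTA. They were incubated at 200 nM for 1 h at 25 °C on a custom Agilent array, double-stranded and BSA-blocked, in PBS with 2% BSA, salmon testes DNA and 50 µM zinc acetate. The binding signal is per-feature fluorescence intensity (arbitrary units) read on an Axon 4000B scanner after washing.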
On to “CATATACTTAATTGTTACTGATATAGTGTGATTTGGTGCACGGAGTCACCTAGTGCAG”, for which the binding signal is 26700 fluorescence intensity (a.u.).
The figure for “TCTCCTCCATCTCCTCGCTTCGTCCCGTTCACACCACCACCGGAGTCACCTAGTGCAG” is 4880 fluorescence intensity (a.u.); for “CGACTTGTAGATAGATAGATAGATAGATAGAAATAGAACGCGGAGTCACCTAGTGCAG” it is 13700 fluorescence intensity (a.u.); for “ATAAATAATTTGCTGACTGGATTGCCACGCGTACGCCACGCGGAGTCACCTAGTGCAG” it is 19900 fluorescence intensity (a.u.).
The figure for “GTCTATCAATCTGCATTTGACTAGCTTGCAGCTAGCACTTCGGAGTCACCTAGTGCAG” is 10900 fluorescence intensity (a.u.); for “ACGGAATTCGTCTAAAATTAATTGATTTCTACAGATTTCGCGGAGTCACCTAGTGCAG” it is 27100 fluorescence intensity (a.u.).
Under “AATAATCTAGTGATGATGATGAATCTAACATCATCTAGAGCGGAGTCACCTAGTGCAG” stands 4080 fluorescence intensity (a.u.); under “ACTGATTAGTGTCAATACGCATCTATCCAAACGTAAAAGCCGGAGTCACCTAGTGCAG”, 38600 fluorescence intensity (a.u.).
For “TAACTGATGATGAGAATGCTGAATTATTGATGCACCAACTCGGAGTCACCTAGTGCAG”, the binding signal was 5460 fluorescence intensity (a.u.).
As for “ATTAATCCATAATTAGAGAATGTTTACTGTAGCATCACATCGGAGTCACCTAGTGCAG”, the binding signal was 11400 fluorescence intensity (a.u.).
Under “AGTAAACAGGTGATGAAATCAATATTATTGTGAAGCATAACGGAGTCACCTAGTGCAG” stands 3450 fluorescence intensity (a.u.).
The figure for “TGCATTAACATGATTTTCTAAAGCAACTTTCGTATAGATTCGGAGTCACCTAGTGCAG” is 5700 fluorescence intensity (a.u.).
Under “AACAAATTGGAGCAAGTAGTGACCAGCAACTCATTGATCACGGAGTCACCTAGTGCAG” stands 8800 fluorescence intensity (a.u.).
Regarding “CTTTCTTAATCTAATTTGTGTTTTCTTGACTGTCACGTGCCGGAGTCACCTAGTGCAG”, the binding signal is 11700 fluorescence intensity (a.u.).
The figure for “CTCGTAATTAACTTTGATGGGAACTTGAAACAGATGCAAGCGGAGTCACCTAGTGCAG” is 44900 fluorescence intensity (a.u.); for “CAACTAATCAGGCCCTAAAATAGACTAAAATAAACATTCACGGAGTCACCTAGTGCAG” it is 13000 fluorescence intensity (a.u.); for “ATATAACTAAAATTACATTTGTAAATTCAGTTGATATGACCGGAGTCACCTAGTGCAG” it is 8700 fluorescence intensity (a.u.).
The figure for “TAGAGATTGGATGTCCAGTTCTAACGTACGTTCAGTGTACCGGAGTCACCTAGTGCAG” is 8010 fluorescence intensity (a.u.); for “GAGTAATTAAGGACGTCCATCCTACGATCTACGGCCTTGTCGGAGTCACCTAGTGCAG” it is 5330 fluorescence intensity (a.u.); for “GGTAGGGTGGGGATGGGGTGTGTGCTAGCAATCCCGGTGGCGGAGTCACCTAGTGCAG” it is 3190 fluorescence intensity (a.u.).
The figure for “GTGGTAAATTGAGGGAGTCAAAGTGATCTTATTCCTTTATCGGAGTCACCTAGTGCAG” is 5850 fluorescence intensity (a.u.); for “TCTCTTCCTTGCTGTGGTGGCGGCGGGCGGGAGGGCGGCGCGGAGTCACCTAGTGCAG” it is 12700 fluorescence intensity (a.u.); for “TTATACAACTGATTATCTATTGGCTCTTGTTTTAATTACTCGGAGTCACCTAGTGCAG” it is 8100 fluorescence intensity (a.u.).
For the sequence “TAACAACTCTGTCAATTAGGCTAGATCAATTATAGTTCATCGGAGTCACCTAGTGCAG”, the binding signal was 12200 fluorescence intensity (a.u.).
Under “TCCCTATTAGAAATCTAATCAAGCATCTCTGAATTCCATCCGGAGTCACCTAGTGCAG” stands 5830 fluorescence intensity (a.u.); under “AAACTAATTGCATAAATGAGAGCTAATCCACAAGACAAATCGGAGTCACCTAGTGCAG”, 33300 fluorescence intensity (a.u.).
The figure for “GATTTCGCAATCCAATTAATACATTAAAATCCTCAACCACCGGAGTCACCTAGTGCAG” is 3500 fluorescence intensity (a.u.).
Under “CAATTTGATTGGTCGATACAAGTTACCGTGCCGGCTGCATCGGAGTCACCTAGTGCAG” stands 43700 fluorescence intensity (a.u.); under “ACACGTACATAATTTCTTTTAAAAGAAATATCTGGAGGGACGGAGTCACCTAGTGCAG”, 3850 fluorescence intensity (a.u.); under “ACGCTAATCAGCGTGATTATCAAATACTGTACTACTAACACGGAGTCACCTAGTGCAG”, 34200 fluorescence intensity (a.u.).
For the sequence “ACTGACAGGAGGCGTGGAGTTGTTGAGGTACTACTTTTATCGGAGTCACCTAGTGCAG”, the binding signal was 3660 fluorescence intensity (a.u.).
For “ATGCCCCATTTAATTGCCTGTTGGGTGACAATTATGGAATCGGAGTCACCTAGTGCAG”, the binding signal is 7940 fluorescence intensity (a.u.).
The figure for “TCTTATTGATTGCAGAATCAAATCAACAGGCACGCTCACGCGGAGTCACCTAGTGCAG” is 42400 fluorescence intensity (a.u.); for “GATTTTAAATCGTTTGATTTGCTTTAAAATTTATGCAAAGCGGAGTCACCTAGTGCAG” it is 3560 fluorescence intensity (a.u.); for “TGTCACCTTAATTGATGCTTCCTACCTGTTAGATCCAATGCGGAGTCACCTAGTGCAG” it is 35500 fluorescence intensity (a.u.).
Under “CACTGCACCTGACAGACAGATCAAGGAGATAACCGGACTACGGAGTCACCTAGTGCAG” stands 3180 fluorescence intensity (a.u.); under “GCCTTGATCAGACTGGAACATCGCACATGATGTGCTCATGCGGAGTCACCTAGTGCAG”, 3780 fluorescence intensity (a.u.).
As for “GATGAGATTGGCGCCACGGGACCGGAACCTTTCAACGGTCCGGAGTCACCTAGTGCAG”, the binding signal is 6320 fluorescence intensity (a.u.).
The figure for “AACTTAATTAAATTTAAAGCAGTTTGATTTTGACTAAAGTCGGAGTCACCTAGTGCAG” is 31800 fluorescence intensity (a.u.).
Under “TTCATTTGGTTTGGTTAATTATAAATTGGATATATACCAGCGGAGTCACCTAGTGCAG” stands 11400 fluorescence intensity (a.u.); under “TTCGATAATGGAATTCAATCTAGCCTCTACGACGGGCCGGCGGAGTCACCTAGTGCAG”, 13300 fluorescence intensity (a.u.); under “ATAATCAATCTAATAGCTCATTCATTCATACAATAGTTAGCGGAGTCACCTAGTGCAG”, 24200 fluorescence intensity (a.u.).
